# PubChem BioAssay (NCATS)
# The inconclusive results got no clear call from the source; some entries with a clear call stand among them for comparison. For some assays here: Potencies of inconclusive entries are doubtful fits and often do not repeat. Activity calls are given as the source filed them. Unless noted, the call rests on the fitted dose curve; in most records, active means well fitted curve in the direction sought with a large enough effect; inconclusive means small, poorly fitted or top-dose-only effect, or another doubt; inactive means no such curve, though single readings can be large; an effect the other way counts as inactive or inconclusive.
# Assays:
# [1] = Confirmatory screen GU Rhodamine qHTS for Zika virus inhibitors qHTS (AID 1347157); further: nearly all actives have a fitted effect of over 70% in size; further: potency means the concentration at half of the fitted maximal effect;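 on activity change, negative = inhibition: plate controls were no-inhibitor wells for no effect and no-enzyme wells for full effect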
# Method in brief: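 In dose–response format, inhibition of unlinked protease (25 nM) was measured with 1.5 microM bis-peptide Rhodamine110 substrate. Aprotinin served as the intraplate control.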
# [2] = Tertiary RLuc qRT-PCR qHTS assay for Zika virus inhibitors (AID 1347169); further: nearly all actives have a fitted effect of over 55% in size; further: potency means the concentration at half of the fitted maximal effect; on activity change, negative = inhibition: top concentration of the series differs between compounds; on the % scale 0 is the no-effect control and ±100 the full control effect
# Method in brief: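 Luminescence read-out: live-cell Renilla luciferase substrate applied to infected Vero cells, signal measured after 1-1.5 hrs. Cells had received compound before ZIKV-RLuc (Cambodian strain, MOI 1-2) infection and were incubated 48-72 hrs at 37 degrees C.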
# [3] = molecular target: Ubiquitin carboxyl-terminal hydrolase 1 (Homo sapiens) (UniProt O94782); assay: Inhibitors of USP1/UAF1: Pilot qHTS (AID 504865);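 further: rhodamine fluorescence freed from ubiquitin-rhodamine substrate followed over time; potency means the concentration at half of the fitted maximal effect; nearly all actives have a fitted effect of over 35% in size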
# UniProt O94782, sequence (O94782 whole entry, looked up): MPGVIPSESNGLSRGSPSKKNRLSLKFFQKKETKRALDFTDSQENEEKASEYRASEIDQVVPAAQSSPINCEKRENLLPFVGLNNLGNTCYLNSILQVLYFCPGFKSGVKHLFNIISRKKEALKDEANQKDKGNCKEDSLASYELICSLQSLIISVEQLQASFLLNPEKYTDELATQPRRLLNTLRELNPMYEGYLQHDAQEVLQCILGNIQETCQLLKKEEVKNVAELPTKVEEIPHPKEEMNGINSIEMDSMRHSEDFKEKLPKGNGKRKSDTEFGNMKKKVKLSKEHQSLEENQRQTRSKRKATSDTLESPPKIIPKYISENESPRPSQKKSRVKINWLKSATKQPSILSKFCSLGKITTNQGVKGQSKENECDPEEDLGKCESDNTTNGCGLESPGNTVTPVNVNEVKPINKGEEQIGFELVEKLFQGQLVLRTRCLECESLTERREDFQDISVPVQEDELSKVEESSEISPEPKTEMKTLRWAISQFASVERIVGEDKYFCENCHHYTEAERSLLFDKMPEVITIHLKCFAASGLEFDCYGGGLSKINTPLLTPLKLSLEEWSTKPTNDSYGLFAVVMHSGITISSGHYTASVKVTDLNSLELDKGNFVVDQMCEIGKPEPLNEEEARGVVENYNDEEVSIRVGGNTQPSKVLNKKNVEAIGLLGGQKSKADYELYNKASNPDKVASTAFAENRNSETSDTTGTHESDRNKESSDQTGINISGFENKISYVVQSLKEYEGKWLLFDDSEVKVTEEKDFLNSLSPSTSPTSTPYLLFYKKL
# Method in brief: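 1nM USP1/UAF1 + cpd, 15 min RT; start w/ Ub-Rho 150nM final; kinetic FL 480/540 nm, 6 reads q60 s. Buffer 50mM HEPES pH 7.8, 0.5mM EDTA, 1mM TCEP, 0.01% Tween-20, 0.1 mg/ml BSA.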
# [4] = Confirmatory screen NINDS Rhodamine qHTS for Zika virus inhibitors (AID 1347161); further: nearly all actives have a fitted effect of over 60% in size; further: potency means the concentration at half of the fitted maximal effect;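 on activity change, negative = inhibition: purified Zika NS2B-NS3 protease with linked NS2B cofactor domain and Rhodamine110 peptide substrate; plate controls were no-inhibitor control for no effect and no-enzyme control for full effect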
# Method in brief: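 Percent inhibition, normalized to uninhibited and enzyme-free controls, is fitted to a 4-parameter Hill equation. Fluorescence change comes from a 15-min cleavage of 1.5 microM bis-peptide Rhodamine110 substrate by 25 nM linked NS2B-NS3 at room temperature.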
# [5] = molecular target: Rap guanine nucleotide exchange factor 3 (Homo sapiens) (UniProt O95398); assay: Counterscreen qHTS for agonist of cAMP-regulated guanine nucleotide exchange factor 3 (EPAC1) (AID 1645889); details: EPAC1 Rap1B-BODIPY-GDP exchange, fluorescence; activation: at 154 µM (top of the series) unless noted; further: % of control where 0% means no effect; nearly all actives have a fitted effect of over 40% in size
# UniProt O95398, sequence (O95398 whole entry, looked up): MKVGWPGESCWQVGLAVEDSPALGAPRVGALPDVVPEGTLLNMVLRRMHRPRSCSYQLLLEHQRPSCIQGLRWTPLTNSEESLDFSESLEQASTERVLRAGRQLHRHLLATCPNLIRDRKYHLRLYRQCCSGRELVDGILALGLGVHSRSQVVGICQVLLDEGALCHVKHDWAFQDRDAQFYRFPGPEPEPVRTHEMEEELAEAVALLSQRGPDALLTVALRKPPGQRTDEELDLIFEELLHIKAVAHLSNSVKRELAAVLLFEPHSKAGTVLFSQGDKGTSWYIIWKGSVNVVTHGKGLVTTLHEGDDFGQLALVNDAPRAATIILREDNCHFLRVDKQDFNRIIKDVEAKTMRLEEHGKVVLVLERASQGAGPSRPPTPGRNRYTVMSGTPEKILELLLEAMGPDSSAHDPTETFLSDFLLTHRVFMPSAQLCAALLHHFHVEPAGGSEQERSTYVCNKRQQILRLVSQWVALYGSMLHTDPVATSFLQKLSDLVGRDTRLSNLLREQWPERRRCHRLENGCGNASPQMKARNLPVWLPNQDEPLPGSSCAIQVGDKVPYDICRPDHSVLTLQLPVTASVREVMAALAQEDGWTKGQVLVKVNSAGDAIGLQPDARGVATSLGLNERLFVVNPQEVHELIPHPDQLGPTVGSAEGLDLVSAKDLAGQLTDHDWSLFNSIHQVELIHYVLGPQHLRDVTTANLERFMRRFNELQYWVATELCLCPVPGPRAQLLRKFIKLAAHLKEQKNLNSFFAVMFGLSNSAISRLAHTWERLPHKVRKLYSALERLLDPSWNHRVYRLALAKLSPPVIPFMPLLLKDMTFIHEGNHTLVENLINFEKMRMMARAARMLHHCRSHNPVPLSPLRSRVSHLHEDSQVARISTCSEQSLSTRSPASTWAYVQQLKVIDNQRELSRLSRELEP
# Method in brief: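 Rap1B-BODIPY-GDP 250 nM + GDP 50 uM; cpds 7-pt, final 9.74 nM–152 uM (activator mode) or from 7.32 nM upwards (inhibitor mode); RT; FI 480/540 nm at 5 and 30 min, then ± cAMP, reread.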
# [6] = molecular target: Cytochrome P450 3A4 (Homo sapiens) (UniProt P08684); assay: qHTS Assay for Inhibitors and Substrates of Cytochrome P450 3A4 (AID 884); details: recombinant CYP3A4, Luciferin-PPXE luminescence; activity change, negative = inhibition: at 57.1 µM (top of the series); further: on the % scale 0 is the no-effect control and ±100 the full control effect; nearly all actives have a fitted effect of over 50% in size
# UniProt P08684, sequence (P08684 whole entry, looked up): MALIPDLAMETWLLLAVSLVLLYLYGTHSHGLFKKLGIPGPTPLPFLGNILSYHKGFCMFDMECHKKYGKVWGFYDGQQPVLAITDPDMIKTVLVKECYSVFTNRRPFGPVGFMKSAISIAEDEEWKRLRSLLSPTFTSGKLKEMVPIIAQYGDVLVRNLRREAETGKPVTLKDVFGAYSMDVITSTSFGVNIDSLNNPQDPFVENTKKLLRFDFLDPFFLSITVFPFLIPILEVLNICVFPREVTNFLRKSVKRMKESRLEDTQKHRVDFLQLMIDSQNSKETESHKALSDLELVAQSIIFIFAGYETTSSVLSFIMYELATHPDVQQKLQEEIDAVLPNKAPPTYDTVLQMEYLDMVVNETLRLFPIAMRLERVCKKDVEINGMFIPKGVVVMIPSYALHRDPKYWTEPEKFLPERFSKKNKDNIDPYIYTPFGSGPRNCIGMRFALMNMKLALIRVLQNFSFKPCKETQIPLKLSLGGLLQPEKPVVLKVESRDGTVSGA
# Method in brief: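 Luminescent readout of luciferin produced by CYP3A4 (20 nM) dealkylation of Luciferin-PPXE, 25 uM (its KM). NADPH-driven reaction ran 60 min at RT after 10 min compound preincubation; data scaled to 57 uM ketoconazole as 100% inhibition.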
# [7] = ZIKV-mCherry secondary qHTS for Zika virus inhibitors (AID 1347158); details: Vero cells, ZIKV-mCherry infection imaging, 48-72 h; activity change, negative = inhibition: at 49.2 µM (top of the series); further: top concentration of the series differs between compounds
# Method in brief: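 Read-out is percent infection: mCherry-positive Vero cells (nuclear-proximal intensity >450 RFU, 3 SD above negative controls) counted by high-content imaging of Hoechst-stained, PFA-fixed wells after 48-72 h with ZIKV-mCherry at MOI 1 and compound.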
# [8] = test system: Zika virus NS2B-NS3 protease (linked construct); assay: 384 well plate NINDS Rhodamine confirmatory qHTS for Zika virus inhibitors (AID 1347164);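 further: fluorescence from protease cleavage of Ac-LKRR-rhodamine 110 substrate; potency means the concentration at half of the fitted maximal effect; nearly all actives have a fitted effect of over 65% in size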
# Method in brief: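 Fluorescence read at ex 485 nm/em 538 nm, 25 min after adding 10 microM Ac-LKRR-Rd substrate at room temperature in the dark; signal normalized to no-enzyme and no-inhibitor controls. Enzyme final 5, 30 or 60 nM; compounds, ~15 min preincubation.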
# [9] = test system: Zika virus NS2B-NS3 protease (linked); assay: 384 well plate NINDS AMC confirmatory qHTS for Zika virus inhibitors (AID 1347163); further: potency means the concentration at half of the fitted maximal effect; nearly all actives have a fitted effect of over 50% in size
# Method in brief: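 Enzyme (5, 30 or 60 nM final) first met test compounds for ~15 min. The AMC-tagged peptide Ac-VKTGKR-AMC followed at 30 microM. Fluorescence was then recorded at 25 min and scaled against no-enzyme and no-inhibitor wells.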
# [10] = molecular target: Peroxisome proliferator-activated receptor delta (Homo sapiens) (UniProt Q03181); assay: qHTS assay for small molecule antagonists of peroxisome proliferator-activated receptor delta signaling (AID 588535; active means well fitted inhibition curve with a large enough effect in the signal ratio, with a control signal flat, not every such curve was filed as active; inconclusive means small, poorly fitted or top-dose-only effect, or effect the other way, or a change in a side signal; inactive means no such curve, though single readings can be large or run the other way; the % refers to the signal ratio); details: HEK293T PPARd-UAS-bla, beta-lactamase FRET ratio, 18 h; activity change, negative = inhibition: at 76.7 µM (top of the series)
# UniProt Q03181, sequence (Q03181 whole entry, looked up): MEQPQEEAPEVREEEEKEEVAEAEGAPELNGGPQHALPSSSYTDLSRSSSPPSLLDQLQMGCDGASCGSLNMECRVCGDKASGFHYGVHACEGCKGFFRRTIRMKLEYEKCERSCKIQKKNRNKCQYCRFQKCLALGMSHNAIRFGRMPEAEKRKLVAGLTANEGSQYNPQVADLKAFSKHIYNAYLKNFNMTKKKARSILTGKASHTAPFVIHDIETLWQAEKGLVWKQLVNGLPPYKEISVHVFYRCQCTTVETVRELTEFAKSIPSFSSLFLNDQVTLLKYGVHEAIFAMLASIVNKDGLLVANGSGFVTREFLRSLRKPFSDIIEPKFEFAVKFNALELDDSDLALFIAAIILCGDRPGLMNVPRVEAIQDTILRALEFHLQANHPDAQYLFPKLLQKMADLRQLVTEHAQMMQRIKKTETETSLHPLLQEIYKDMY
# Method in brief: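 Antagonist-mode qHTS using GeneBLAzer PPAR-delta-UAS-bla HEK293T cells; compound exposure 18 hrs at 37 C over a titration. Ratiometric CCF4 fluorescence at 460/530 nm; concentration-response points fitted to the Hill equation.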
# [11] = molecular target: Peroxisome proliferator-activated receptor gamma (Homo sapiens) (UniProt P37231); assay: qHTS assay for small molecule agonists of peroxisome proliferator-activated receptor gamma signaling (AID 588536; active means well fitted curve in the direction sought with a large enough effect in the signal ratio, with a control signal flat, not every such curve was filed as active; inconclusive means small, poorly fitted or top-dose-only effect, or effect the other way, or a change in a side signal; inactive means no such curve, though single readings can be large or run the other way; the % refers to the signal ratio;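 further: 0% = DMSO basal wells and 100% = rosiglitazone at 2 µM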); details: HEK293 PPARg-UAS-bla, beta-lactamase ratio, 16 h; activation: at 76.7 µM (top of the series), percent of rosiglitazone response, DMSO as zero
# Method in brief: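 Cells were plated and held 6–6.5 h at 37 C, then compounds were added as a titration series. After a further 16 h, CCF4 dye was loaded for 2 h at room temperature and emission at 460/530 nm recorded.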
# [12] = molecular target: Peroxisome proliferator-activated receptor gamma (Homo sapiens) (UniProt P37231); assay: qHTS assay for small molecule antagonists of peroxisome proliferator-activated receptor gamma signaling (AID 588537; active means well fitted inhibition curve with a large enough effect in the signal ratio, with a control signal flat, not every such curve was filed as active; inconclusive means small, poorly fitted or top-dose-only effect, or effect the other way, or a change in a side signal; the % refers to the signal ratio;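 further: reporter cells co-stimulated with 50 nM rosiglitazone agonist during compound treatment; % of control where 0% means no effect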); details: HEK293 PPARg-UAS-bla, beta-lactamase ratio, antagonist mode; activity, negative = inhibition: at 76.8 µM (top of the series)
# Method in brief: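 Cell-based beta-lactamase assay; GW9662 served as the antagonist control. Stimulation used rosiglitazone, final 50 nM, 16 h, 37 C.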
# [13] = molecular target: Vitamin D3 receptor (Homo sapiens) (UniProt P11473); assay: qHTS assay for small molecule antagonists of vitamin D receptor signaling (AID 588541; calls by dose curve;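 further: receptor activated by calcitriol during compound treatment; on the % scale 0 is the no-effect control and ±100 the full control effect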); details: HEK293T VDR-UAS-bla, beta-lactamase ratio, antagonist mode; activity change, negative = inhibition: at 76.7 µM (top of the series)
# UniProt P11473, sequence (P11473 whole entry, looked up): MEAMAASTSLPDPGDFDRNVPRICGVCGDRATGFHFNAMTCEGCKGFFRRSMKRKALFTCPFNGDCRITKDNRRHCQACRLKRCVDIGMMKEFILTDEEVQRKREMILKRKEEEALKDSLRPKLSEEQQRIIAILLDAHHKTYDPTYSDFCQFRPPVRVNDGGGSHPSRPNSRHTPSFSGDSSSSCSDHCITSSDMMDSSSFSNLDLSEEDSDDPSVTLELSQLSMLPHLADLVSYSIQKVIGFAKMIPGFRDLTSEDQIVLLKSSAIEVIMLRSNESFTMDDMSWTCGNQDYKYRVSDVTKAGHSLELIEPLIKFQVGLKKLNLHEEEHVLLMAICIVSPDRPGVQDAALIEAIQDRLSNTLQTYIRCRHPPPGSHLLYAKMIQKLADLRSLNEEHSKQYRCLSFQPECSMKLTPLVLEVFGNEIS
# [14] = molecular target: Thyroid hormone receptor beta (Homo sapiens) (UniProt P10828); assay: qHTS assay for small molecule agonists of thyroid hormone receptor beta signaling (AID 588545; calls by dose curve); details: TR-UAS-bla GripTite HEK 293, beta-lactamase ratio, agonist mode, 18 h; activation: at 76.7 µM, percent of T3 response, DMSO as zero
# UniProt P10828, sequence (P10828 whole entry, looked up): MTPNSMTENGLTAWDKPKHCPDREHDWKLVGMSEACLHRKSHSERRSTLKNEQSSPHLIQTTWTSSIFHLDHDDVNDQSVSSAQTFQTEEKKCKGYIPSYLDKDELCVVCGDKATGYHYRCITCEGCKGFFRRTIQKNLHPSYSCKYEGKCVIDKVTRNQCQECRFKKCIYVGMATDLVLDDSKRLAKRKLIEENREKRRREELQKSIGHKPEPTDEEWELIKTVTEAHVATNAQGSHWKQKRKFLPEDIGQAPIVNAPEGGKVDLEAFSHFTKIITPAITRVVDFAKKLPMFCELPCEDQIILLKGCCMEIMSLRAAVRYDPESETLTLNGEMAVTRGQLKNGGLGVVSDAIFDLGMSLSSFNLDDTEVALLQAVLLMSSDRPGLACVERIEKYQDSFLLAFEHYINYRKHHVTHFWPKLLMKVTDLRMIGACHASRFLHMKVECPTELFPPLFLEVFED
# Method in brief: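 HEK 293 TR-UAS-bla; agonist mode; 18 hrs, 37 C; CCF4, ex 405/em 460 and 530 nm; norm. T3 10 nM = 100%, DMSO = 0%; Hill fit → EC50, efficacy.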
# [15] = qHTS assay for small molecule agonists of the antioxidant response element (ARE) signaling pathway measured by Nrf2-dependant transcriptional activity - cell viability counter screen (AID 720653; active means well fitted curve in the direction sought with a large enough effect in the repeat runs; inconclusive means weak or mixed curves; inactive means no such curve, though single readings can be large; an effect the other way counts as inactive or inconclusive; further: potency means the concentration at half of the fitted maximal effect); details: ARE-bla HepG2 viability, CellTiter-Glo ATP luminescence, 16 h
# Method in brief: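 Cytotoxicity counter screen: intracellular ATP quantified by CellTiter-Glo luminescence in the same ARE-bla HepG2 plates, after 16 h compound exposure and a 2 h beta-lactamase substrate step.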
# [16] = qHTS assay for cell viability of the p53RE-bla HCT-116 cell line (AID 743292); details: p53RE-bla HCT-116 viability, ATP luminescence, 16 h; further: potency means the concentration at half of the fitted maximal effect; nearly all actives have a fitted effect of over 55% in size
# Method in brief: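 Viability of compound-treated p53RE-bla HCT-116 cells is taken from ATP-dependent luciferase luminescence. Treatment lasts 16 h at 37 C after a 5 h settling period; detection follows 30 min at room temperature.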
# Tags describe the fitted curve by direction and shape.
smiles,measurement,setting,value
O=C(COc1ccccc1F)Nc1ccccc1C(=O)OCc1cc(=O)n2nc(C3CC3)sc2n1,Potency,[1],inactive
same,Potency,[2],"inconclusive: 0.0739 µM [inhibitor, partial curve, poor fit]"
O=C1C=CC(=O)c2c(O)c(Cl)c(Cl)c(O)c21,Potency,[3],"inconclusive: 56.2 µM [inhibitor, partial curve, poor fit]"
same,Potency,[1],"inconclusive: 35.5 µM [inhibitor, partial curve, poor fit]"
same,Potency,[4],inactive
CCOC(=O)c1ccc(NC(=O)CSc2nc(-c3ccc(OC)cc3)cc(C(F)(F)F)c2C#N)cc1,Potency,[1],"inconclusive: 79.4 µM [inhibitor, single point]"
same,Potency,[4],"inconclusive: 89.1 µM [inhibitor, partial curve, poor fit]"
same,Potency,[2],"inconclusive: 3.3 µM [inhibitor, partial curve, poor fit]"
same,activation,[5],inconclusive: 59.6% [activator]
COc1ccc(S(=O)(=O)c2c(Nc3c(C)cccc3C)sc(C(=O)c3ccc4c(c3)OCO4)c2N)cc1,Potency,[1],inactive
same,Potency,[2],"inconclusive: 0.276 µM [inhibitor, partial curve, poor fit]"
O=C(O)Cc1cc(I)c(Oc2cc(I)c(O)c(I)c2)c(I)c1,Potency,[6],inactive
same,Potency,[1],inactive
same,Potency,[4],"inconclusive: 63.1 µM [inhibitor, single point]"
CC(C)c1nn2c(=O)cc(COC(=O)c3cccc(NC(=O)c4ccccc4F)c3)nc2s1,Potency,[1],inactive
same,Potency,[4],inactive
same,"activity change, negative = inhibition",[2],inactive: 46.5% [at 1.74 µM]
O=c1oc2ccc3ccccc3c2cc1-c1nnc(Nc2cc(C(F)(F)F)ccc2Cl)s1,Potency,[1],"inconclusive: 15.8 µM [inhibitor, full curve, poor fit]"
same,"activity change, negative = inhibition",[2],inactive: -13.4% [at 1.74 µM]
O=C(Nc1ccc(C(=O)OCc2cc(=O)n3c4c(sc3n2)CCCC4)cc1)c1ccccc1,Potency,[1],inactive
same,Potency,[4],inactive
O=C(Nc1ccc(-c2nc3ccccc3s2)c(O)c1)c1ccc(Br)cc1,Potency,[1],inactive
same,"activity change, negative = inhibition",[2],inactive: -5.09% [at 1.74 µM]
O=C(CSc1ncccc1C(=O)Oc1ccccc1Cl)Nc1ccc(C(F)(F)F)cc1Cl,Potency,[1],"inconclusive: 50.1 µM [inhibitor, partial curve, poor fit]"
same,Potency,[4],"inconclusive: 56.2 µM [inhibitor, single point]"
same,Potency,[2],"inconclusive: 20 µM [inhibitor, single point]"
Cc1ccc(-c2nnc(Nc3ccc(O)cc3)c3ccccc23)cc1S(=O)(=O)NCc1nc2ccccc2[nH]1,Potency,[1],inactive
same,Potency,[2],"inconclusive: 0.0126 µM [inhibitor, full curve, poor fit]"
O=c1oc2cc(O)ccc2cc1-c1nc(-c2ccc(Cl)c(Cl)c2)cs1,Potency,[7],inactive
same,Potency,[4],"inconclusive: 20 µM [inhibitor, full curve]"
same,Potency,[8],"inconclusive: 14.1 µM [inhibitor, full curve, poor fit]"
same,Potency,[2],inactive
CCOc1ccccc1NC(=O)c1ccc2oc(=O)c(S(=O)(=O)c3ccc(F)cc3)cc2c1,Potency,[1],inactive
same,Potency,[4],inactive
Cc1oc2c(cc(NS(=O)(=O)c3ccc(F)cc3)c3ccccc32)c1C(=O)OCc1ccccc1,Potency,[1],"inconclusive: 39.8 µM [inhibitor, partial curve]"
same,Potency,[9],"inconclusive: 178 µM [inhibitor, full curve, poor fit]"
same,Potency,[2],"inconclusive: 28.2 µM [inhibitor, partial curve, poor fit]"
CCCCc1nn2c(=O)cc(COC(=O)c3cccc(NC(=O)c4cccc(Cl)c4)c3)nc2s1,Potency,[1],inactive
same,Potency,[4],"inconclusive: 31.6 µM [inhibitor, partial curve]"
O=C(/C=C/c1ccc(C(F)(F)F)cc1)OC(C(=O)NC1CC1)c1ccccc1 (centres undefined),Potency,[1],inactive
same,Potency,[4],inactive
O=S(=O)(Nc1ccc(O)c(NS(=O)(=O)c2ccccc2)c1)c1ccccc1,Potency,[1],inactive
same,Potency,[2],inactive
CC(C)c1nn2c(=O)cc(COC(=O)c3ccc(NC(=O)c4cccs4)cc3)nc2s1,Potency,[1],inactive
same,Potency,[4],inactive
O=C1C2=C(Nc3ccccc3SC2c2ccc(Cl)c(Cl)c2)c2ccccc21 (centres undefined),Potency,[1],"inconclusive: 56.2 µM [inhibitor, single point]"
same,Potency,[2],"inconclusive: 6.18 µM [inhibitor, single point]"
COC(=O)C1=C(c2ccccc2)c2ccccc2S(=O)(=O)N1CC(=O)Nc1ccccc1C(F)(F)F,Potency,[1],inactive
same,Potency,[2],"inconclusive: 0.316 µM [inhibitor, partial curve, poor fit]"
CCN(Cc1cccc(S(=O)(=O)O)c1)c1ccc(C(=C2C=CC(=[N+](CC)Cc3cccc(S(=O)(=O)O)c3)C=C2)c2ccccc2S(=O)(=O)[O-])cc1,Potency,[10],inactive
same,activation,[11],inconclusive: -4.4%
same,"activity, negative = inhibition",[12],inconclusive: 6.19%
same,Potency,[13],inactive
same,activation,[14],inactive: 0.123%
same,Potency,[15],"inconclusive: 35.5 µM [cytotoxic, partial curve, poor fit]"
same,Potency,[16],active: 31.6 µM
same,Potency,[1],active: 3.55 µM
same,Potency,[9],active: 200 µM
same,Potency,[2],"inconclusive: 0.0005 µM [inhibitor, full curve, poor fit]"
